# Measured values: PMC4336329 (PLoS ONE, 2015)
# The campaign covered roughly 310,000 compounds. About 2,200 (0.71%) showed an effect of 50% or more. The effect is printed as a negative number. Some of the results follow.
# Target: human ether-à-go-go-related gene (hERG) potassium channel (human, UniProt Q12809)
# Assay: primary screen, population patch clamp on CHO cells stably expressing hERG
# Sequence of human ether-à-go-go-related gene (hERG) potassium channel (Q12809 whole entry, looked up): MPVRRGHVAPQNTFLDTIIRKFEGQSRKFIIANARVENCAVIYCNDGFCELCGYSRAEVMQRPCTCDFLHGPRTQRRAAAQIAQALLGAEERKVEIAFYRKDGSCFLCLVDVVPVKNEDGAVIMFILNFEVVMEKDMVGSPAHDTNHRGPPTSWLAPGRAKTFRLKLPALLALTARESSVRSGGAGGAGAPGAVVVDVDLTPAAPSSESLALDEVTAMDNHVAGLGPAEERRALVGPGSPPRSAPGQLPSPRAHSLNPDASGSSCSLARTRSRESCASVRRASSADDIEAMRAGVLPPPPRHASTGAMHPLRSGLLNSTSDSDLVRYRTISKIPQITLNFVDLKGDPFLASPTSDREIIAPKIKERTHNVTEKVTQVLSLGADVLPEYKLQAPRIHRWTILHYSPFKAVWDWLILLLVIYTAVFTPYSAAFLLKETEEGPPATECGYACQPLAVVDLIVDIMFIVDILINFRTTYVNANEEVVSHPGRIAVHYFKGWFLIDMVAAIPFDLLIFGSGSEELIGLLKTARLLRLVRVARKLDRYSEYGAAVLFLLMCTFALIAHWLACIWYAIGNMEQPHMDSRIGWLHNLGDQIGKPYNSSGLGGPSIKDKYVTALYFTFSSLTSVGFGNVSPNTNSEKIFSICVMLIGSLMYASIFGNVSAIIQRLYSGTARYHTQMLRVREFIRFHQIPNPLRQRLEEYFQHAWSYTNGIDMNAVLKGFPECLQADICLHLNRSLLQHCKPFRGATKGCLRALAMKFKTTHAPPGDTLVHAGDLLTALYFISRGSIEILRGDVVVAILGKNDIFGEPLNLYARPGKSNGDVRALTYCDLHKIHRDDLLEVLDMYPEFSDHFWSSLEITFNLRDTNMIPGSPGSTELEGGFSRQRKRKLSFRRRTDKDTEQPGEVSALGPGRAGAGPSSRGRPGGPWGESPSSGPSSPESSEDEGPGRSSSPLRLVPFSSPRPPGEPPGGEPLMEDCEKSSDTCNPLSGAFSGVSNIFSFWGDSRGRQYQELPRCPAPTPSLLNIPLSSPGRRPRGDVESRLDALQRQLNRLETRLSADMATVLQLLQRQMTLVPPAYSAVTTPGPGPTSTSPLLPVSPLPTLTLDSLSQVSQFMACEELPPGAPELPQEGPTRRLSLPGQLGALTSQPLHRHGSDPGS
row,SMILES,"hERG current change (%, negative = inhibition) at 1uM"
1,CCOc1ccc(-c2nnc(SCC(=O)Nc3cc(C)on3)o2)cc1,14.9%
2,CCc1ccc(N2CC(C)Cn3c2nc2c3c(=O)[nH]c(=O)n2C)cc1 (stereo not drawn),12.4%
3,[O-][n+]1onc2c1C(N1CCOCC1)CCC2N1CCOCC1 (stereo not drawn),4.24%
4,COc1ccc(C(c2nnnn2C2CCCCC2)N2CCN(c3ccc(OC)cc3)CC2)cc1 (stereo not drawn),-6.19%
5,Cc1ccc(-c2ccc(/C=N/NC(=O)Cc3nnc(N)s3)o2)cc1Cl,3.31%
6,CCCCC(CC)COC1(c2ccccc2)OC(=O)c2ccccc21 (stereo not drawn),1.85%
7,COc1ccc(-c2[nH]ncc2-c2cnn(-c3ccccc3)c2)c(O)c1,-2.51%
8,Cc1nc(-c2ccncc2)sc1C(=O)Nc1ccc(Br)cc1,12.6%
9,CCc1nnc(NC(=O)C2CC(=O)N(CCc3ccc(F)cc3)C2)s1 (stereo not drawn),11.1%
10,COc1cc(OC)cc(C(=O)Nc2ccc(N3CCN(C(=O)c4cccs4)CC3)cc2)c1,0.936%
11,CC(C)(C)c1ccc(SCCc2ccncc2)cc1,17.4%
12,Cc1cc(C(=O)NNC2CC(=O)N(c3ccc4ccccc4c3)C2=O)c(C)o1 (stereo not drawn),12.3%
13,O=C(NC1(C(F)(F)F)NC(=O)N(C2CCCC2)C1=O)C1CC1 (stereo not drawn),12.6%
14,O=C(Cn1nnc(-c2ccc(Cl)cc2)n1)NC1CCS(=O)(=O)C1 (stereo not drawn),0.0052%
15,CC(=O)O.COc1ccc2nccc(/C=C/c3ccnc4ccc(OC)cc34)c2c1,-3.3%
16,Cc1ccnc(N2CCC(C(=O)NNC(=O)c3ccccc3C)CC2)n1,2.96%
17,CC(C)(C)c1ccc(NC(=S)NCc2cccnc2)cc1,9.46%
18,Cn1cccc1CC(=O)N/N=C/c1ccc([N+](=O)[O-])cc1,9.3%
19,CCCc1cc(=O)oc2cc(OCC(=O)NC3CCN(Cc4ccccc4)CC3)ccc12,-31.3%
20,O=S(=O)(NCC(c1ccc2c(c1)OCO2)N1CCOCC1)c1ccc(Br)cc1 (stereo not drawn),12.6%
21,CCOC(=O)NC(CC(=O)O)c1ccc(OC)c(OC)c1 (stereo not drawn),-1.33%
22,COc1ccc2nc(N3CCN(C(=O)c4ccc([N+](=O)[O-])o4)CC3)sc2c1,-14.3%
23,CCNC(=S)NCc1ccc2[nH]c(C)cc2c1,12.7%

row,SMILES,"hERG current change (%, negative = inhibition) at 1uM"
1,Cc1cc(/C=C2/SC(=O)N(CC(=O)N3CCCC3)C2=O)ccc1N1CCOCC1,8.86%
2,O=C(c1ccc2nc(-c3ccco3)c(-c3ccco3)nc2c1)N1CCN(c2ncccn2)CC1,-4.63%
3,CCOC(=O)c1c(NC(NC(C)=O)C(Cl)(Cl)Cl)sc2c1CCCC2 (stereo not drawn),7.76%
4,CCn1cc(-c2cc(C(F)(F)F)n3nc(C(=O)O)cc3n2)c(C)n1,0.618%
5,C/C(=N\NC(=O)c1cc(C)oc1C)c1ccc2ccccc2c1,14%
6,Cn1nccc1C(=O)Nc1cc(Cl)ccc1Cl,11.3%
7,Cc1ccc2nc(-c3ccccn3)cc(C(=O)N3CCN(c4ncccn4)CC3)c2c1,9.43%
8,CCCOC1CCCN(C(=O)c2cc(COc3ccc(F)c(F)c3)on2)C1 (stereo not drawn),17.1%
9,OC1(C#CCCN2CCCCC2)c2ccccc2-c2ccccc21,0.302%
10,CCOC(=O)C1(Cc2ccccc2Cl)CCN(S(=O)(=O)N(C)C)CC1,13.4%
11,CCOC(=O)c1c(C)[nH]c(C)c1S(=O)(=O)NCCCc1ccco1,7.87%
12,O=C1CSC(=S)N1/N=C/c1ccc(C(F)(F)F)cc1,14.7%
13,COc1ccc(C2CC(c3ccc(Br)cc3)=NN2C(=O)CSC2=NCCS2)cc1 (stereo not drawn),9.46%
14,O=C(OC1CCOC1=O)c1ccc(Cl)c(S(=O)(=O)N2CCCCC2)c1 (stereo not drawn),16.1%
15,CN(C)/C=C/C=C1C(=O)CCCC1=O,10.2%
16,Cc1oc(-c2ccc(Cl)cc2)nc1CSCC(=O)NCCCN1CCOCC1,10.2%
17,CCN(CC)c1nc(C#N)cc(-c2ccc(OC)cc2)n1,0.63%
18,COc1ccccc1C(=O)Nc1ccc(OCC(=O)N2CC(C)CC(C)C2)cc1 (stereo not drawn),-4.53%
19,CCC(C)(C)n1nnnc1C(c1ccc2ncccc2c1)N1CCN(c2ccc(O)cc2)CC1 (stereo not drawn),-0.777%
20,FC(F)(F)c1cnc(C(c2ccccc2)c2ncn[nH]2)c(Cl)c1 (stereo not drawn),14.2%
21,Cc1cccc(C(C(=O)NCc2ccc(F)cc2)N(C(=O)c2csnn2)C2CC2)c1 (stereo not drawn),5.6%
22,COc1ccc(N2CCN(C(=O)CN(c3cccc(OC)c3)S(=O)(=O)c3ccccc3)CC2)cc1,-2.8%
23,Nc1nc(SCc2ccc([N+](=O)[O-])cc2)nc2nc3c(cc12)CCCC3,12.2%

row,SMILES,"hERG current change (%, negative = inhibition) at 1uM"
1,COc1ccc(NC(=O)CC23CC4CC(CC(C4)C2)C3)cn1,12.5%
2,O=C(O)c1cccc(NC2=Nc3cccc4cccc2c34)c1,6.94%
3,COc1ccc(CC(=O)NC(c2ccccc2)c2ccc(C)cc2)c(OC)c1 (stereo not drawn),15.4%
4,COC(=O)C1(C)NC(c2ccc(Cl)cc2)C2C(=O)N(c3ccccc3)C(=O)C21 (stereo not drawn),8.1%
5,Cc1nn(C)c(C)c1S(=O)(=O)Nc1ccc2c(c1)OCO2,7.49%
6,Cc1ccnc(NCc2ccc(Br)cc2)c1,2.72%
7,COc1cc(C(=O)Nc2ccccc2C(=O)Nc2ccccn2)cc(OC)c1OC,6.84%
8,O=C(Nc1ccc(-c2nc3ccccc3o2)cc1)c1ccc2c(c1)OCO2,8.83%
9,O=C(Nc1ccc2nc3n(c(=O)c2c1)CCCCC3)c1ccccc1Cl,-2.65%
10,CCOc1cc(/C=N/O)cc(Br)c1OCc1ccc(Cl)cc1,12.9%
11,Fc1cccc(/C=N/NC(=S)Nc2ccccc2Cl)c1,10.7%
12,O=[N+]([O-])c1ccc(OCc2cn([C@@H](CO)c3ccccc3)nn2)c(Br)c1,12.6%
13,Clc1ccc(CON/C=N/c2ncnc3sccc23)cc1,19.5%
14,COc1ccc(-c2nnc(SCC(=O)N3CCOCC3)o2)cc1,2.99%
15,O=S(=O)(c1ccc(Cl)cc1)N1CCSC1c1ccco1 (stereo not drawn),2.53%
16,O=c1cc(-c2ccc(O)cc2)oc2ccc3ccccc3c12,14%
17,CCOc1ccc(OCC(=O)OCC(=O)NCC2CCCO2)cc1 (stereo not drawn),10.4%
18,COCCN1C(=O)N[C@H](c2cccc(C(F)(F)F)c2)C(C(=O)OC)=C1C,5.44%
19,Cc1ccc(S(=O)(=O)CCC(=O)Nc2cc(Cl)ccc2-n2cncn2)cc1,0.198%
20,Cc1ccc(S(=O)(=O)NC2OC(=O)C(Cl)=C2Cl)cc1 (stereo not drawn),5.69%
21,CCOC(=O)c1ccc(N=C(CC)c2c(O)n(C)c(=O)n(C)c2=O)cc1,0.473%
22,CCCC(=O)NCCc1cc2ccc(C)c(C)c2[nH]c1=O,12.1%
23,Cc1cc2ncn(C(=O)N3CCCC3)c2cc1C,18.5%

row,SMILES,"hERG current change (%, negative = inhibition) at 1uM"
1,CCCCC(C(=O)NC(C)(C)C)N(Cc1ccco1)C(=O)c1snc(C(N)=O)c1N (stereo not drawn),6.86%
2,CC(C)(C)C1CCC(=NNc2ncc(C(F)(F)F)cc2Cl)CC1 (stereo not drawn),2.6%
3,CN(C)/C=N/S(=O)(=O)c1ccc(Cl)cc1,7.7%
4,O=C(CCSc1ccccc1)N1CCOCC1,11.8%
5,CCOC(=O)c1ccc(NC(=O)CC2SC(=NC)N(C)C2=O)cc1 (stereo not drawn),4.96%
6,Cc1ccccc1-c1nnc(SCC(=O)N2CCCC2)o1,12.9%
7,CCN1CCN(c2ccc(S(=O)(=O)N3CCOCC3)cc2NC(=O)c2ccc(C)cc2C)CC1,5.62%
8,Cc1ccccc1N(C(=O)CCCC(=O)Nc1ccccn1)C(C(=O)NC1CCCC1)c1ccc(O)cc1 (stereo not drawn),9.05%
9,CCN(CC)CC(=O)c1c[nH]c2ccc(C)cc12,-5.56%
10,CCOc1ccccc1-n1c(SCC(=O)NCc2ccco2)nnc1-c1ccncc1,-8.04%
11,C=CCn1c(CCC(=O)O)ccc1-c1ccccc1,-3.82%
12,O=C(NCCC1=CCCCC1)C1CCCN(S(=O)(=O)c2cnc[nH]2)C1 (stereo not drawn),10.1%
13,Cn1nc(C(F)(F)F)c(C#N)c1N1CCN(c2ccccc2F)CC1,8.97%
14,CN1CCCC2(CCCN(Cc3nc(Cc4cccc(C(F)(F)F)c4)no3)C2)C1 (stereo not drawn),2.71%
15,COc1cc(/C=C/C(=O)O)ccc1OCc1ccccc1C#N,8.09%
16,COc1cc2[nH]c(=O)n(CCC(=O)N3CCC(N4CCCCC4)CC3)c(=O)c2cc1OC,22.6%
17,COc1ccc(C(=O)NC(=S)NC2CCCCC2)cc1,12.3%
18,CCCC1(CCC)NC(=O)N(CC(=O)Nc2cccc(OC)c2)C1=O,9.94%
19,CN(C)CCCN1C(=O)c2cccc3cccc(c23)C1=O,0.723%
20,Cc1ccc(-n2[nH]c(C)c(/C=N/c3cccc(C)n3)c2=O)cc1,9.82%
21,O=C(CSc1nnc(-c2cccnc2)n1Cc1ccco1)Nc1cccc(O)c1,-0.491%
